This is a noisy data set.
Experiment: amyloid nucleation score relative to library mode (yeast Sup35 reporter selection) (log enrichment difference); higher = more amyloid nucleation; sequences are the first 22 residues of the Bri2 peptide extended by up to 12 random residues
Conditions: random library (experiment): 1;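 active = nucleation score significantly above 0 at FDR 0.05; inactive = not significantly above 0 or absent from output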
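Also: [psi-pin-] Saccharomyces cerevisiae expressing SupN fusions, induced by 100 µM Cu2SO4, selected 7 d at 30 °C without adenine and uracil, scored by deep sequencing of output versus input.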

| Sequence | amyloid nucleation score |
| --- | --- |
| EASNCFAIRHFENKFAVETLICEAMRAREAWCDH | inactive |
| EASNCFAIRHFENKFAVETLICLRYWAGLMEEWR | inactive |
| EASNCFAIRHFENKFAVETLICPCICTGGFVDYR | 7.73 |
| EASNCFAIRHFENKFAVETLICCCCYARPDVPSW | 6.3 |
| EASNCFAIRHFENKFAVETLICRCWGLRSRKARG | 7.06 |
| EASNCFAIRHFENKFAVETLICHYHLF | 5.16 |
| EASNCFAIRHFENKFAVETLICGCGYGHRVAVGI | inactive |
| EASNCFAIRHFENKFAVETLICCDVKYAMESGRS | 1.49 |
| EASNCFAIRHFENKFAVETLICVVRVPGAFVVR | inactive |
| EASNCFAIRHFENKFAVETLICVDVLSTRRFETA | inactive |
| EASNCFAIRHFENKFAVETLICVARRAE | inactive |
| EASNCFAIRHFENKFAVETLICNRDAL | inactive |
| EASNCFAIRHFENKFAVETLICLSRSAHLYNV | inactive |
| EASNCFAIRHFENKFAVETLICVGASFRYLGQLL | inactive |
| EASNCFAIRHFENKFAVETLICKCSEGRIISLGV | inactive |
| EASNCFAIRHFENKFAVETLICPFLVVNLSCIDC | 5.75 |
| EASNCFAIRHFENKFAVETLICDDVA | inactive |
| EASNCFAIRHFENKFAVETLICNV | inactive |
| EASNCFAIRHFENKFAVETLICNSEIMCRDTLRW | 5.45 |

Same assay, conditions: random library (experiment): 2

| Sequence | amyloid nucleation score |
| --- | --- |
| EASNCFAIRHFENKFAVETLICLGMKFEFNFCTQ | 7.47 |
| EASNCFAIRHFENKFAVETLICVHGGDTAYRQTG | -0.191 |
| EASNCFAIRHFENKFAVETLICAVMIRRCSSY | inactive |
| EASNCFAIRHFENKFAVETLICTGCSVCHRVLLV | -0.113 |
| EASNCFAIRHFENKFAVETLICQYDICERCWRIS | inactive |
| EASNCFAIRHFENKFAVETLICLVTSSNGYVI | 0.693 |
| EASNCFAIRHFENKFAVETLICVDRNMICGPLCV | inactive |
| EASNCFAIRHFENKFAVETLICASIGTSWFMRRA | 5.21 |
| EASNCFAIRHFENKFAVETLICYLLHIGPLSVLQ | inactive |
| EASNCFAIRHFENKFAVETLICGLSNI | inactive |
| EASNCFAIRHFENKFAVETLICLVCWIGPMNFWL | 5.82 |
| EASNCFAIRHFENKFAVETLICFFQYAYFRFSFV | inactive |
| EASNCFAIRHFENKFAVETLICLYAAVMSVFTSL | -0.278 |
| EASNCFAIRHFENKFAVETLICRCVFRAMGAPAS | inactive |
| EASNCFAIRHFENKFAVETLICLNINHVPWQSSM | 6.65 |

Same assay, conditions: random library (experiment): 3

| Sequence | amyloid nucleation score |
| --- | --- |
| EASNCFAIRHFENKFAVETLICRSLQSHATRELR | inactive |
| EASNCFAIRHFENKFAVETLICRVRNGCGRLI | inactive |
| EASNCFAIRHFENKFAVETLICRTCVDPRREKDL | inactive |
| EASNCFAIRHFENKFAVETLICGNVCFRQYCSNE | 8.22 |
| EASNCFAIRHFENKFAVETLICLVSH | inactive |
| EASNCFAIRHFENKFAVETLICHSKMSLLNSAS | inactive |
| EASNCFAIRHFENKFAVETLICYCSGIRLVGFMW | inactive |
| EASNCFAIRHFENKFAVETLICPERYANSIVIKR | inactive |
| EASNCFAIRHFENKFAVETLICCAVRRYPWEIV | 1.96 |
| EASNCFAIRHFENKFAVETLICDMVSHRLFLI | inactive |
| EASNCFAIRHFENKFAVETLICMLEWLSHLVMRR | inactive |
| EASNCFAIRHFENKFAVETLICYMLIRQS | inactive |
| EASNCFAIRHFENKFAVETLICIALLCIYDYCSL | inactive |

Reference: the supplement of paper PMC12067230
